Paper PMC4336329 (PLoS ONE, 2015)
Among all 310,000 compounds or so, about 2,200 (0.71%) showed an effect of 50% or more. The effect is printed as a negative number. The list shows a part of the results.

Each molecule was assayed against human ether-à-go-go-related gene (hERG) potassium channel (human, UniProt Q12809) (assay: primary screen, population patch clamp on CHO cells stably expressing hERG).
Chain of human ether-à-go-go-related gene (hERG) potassium channel (Q12809 whole entry, looked up): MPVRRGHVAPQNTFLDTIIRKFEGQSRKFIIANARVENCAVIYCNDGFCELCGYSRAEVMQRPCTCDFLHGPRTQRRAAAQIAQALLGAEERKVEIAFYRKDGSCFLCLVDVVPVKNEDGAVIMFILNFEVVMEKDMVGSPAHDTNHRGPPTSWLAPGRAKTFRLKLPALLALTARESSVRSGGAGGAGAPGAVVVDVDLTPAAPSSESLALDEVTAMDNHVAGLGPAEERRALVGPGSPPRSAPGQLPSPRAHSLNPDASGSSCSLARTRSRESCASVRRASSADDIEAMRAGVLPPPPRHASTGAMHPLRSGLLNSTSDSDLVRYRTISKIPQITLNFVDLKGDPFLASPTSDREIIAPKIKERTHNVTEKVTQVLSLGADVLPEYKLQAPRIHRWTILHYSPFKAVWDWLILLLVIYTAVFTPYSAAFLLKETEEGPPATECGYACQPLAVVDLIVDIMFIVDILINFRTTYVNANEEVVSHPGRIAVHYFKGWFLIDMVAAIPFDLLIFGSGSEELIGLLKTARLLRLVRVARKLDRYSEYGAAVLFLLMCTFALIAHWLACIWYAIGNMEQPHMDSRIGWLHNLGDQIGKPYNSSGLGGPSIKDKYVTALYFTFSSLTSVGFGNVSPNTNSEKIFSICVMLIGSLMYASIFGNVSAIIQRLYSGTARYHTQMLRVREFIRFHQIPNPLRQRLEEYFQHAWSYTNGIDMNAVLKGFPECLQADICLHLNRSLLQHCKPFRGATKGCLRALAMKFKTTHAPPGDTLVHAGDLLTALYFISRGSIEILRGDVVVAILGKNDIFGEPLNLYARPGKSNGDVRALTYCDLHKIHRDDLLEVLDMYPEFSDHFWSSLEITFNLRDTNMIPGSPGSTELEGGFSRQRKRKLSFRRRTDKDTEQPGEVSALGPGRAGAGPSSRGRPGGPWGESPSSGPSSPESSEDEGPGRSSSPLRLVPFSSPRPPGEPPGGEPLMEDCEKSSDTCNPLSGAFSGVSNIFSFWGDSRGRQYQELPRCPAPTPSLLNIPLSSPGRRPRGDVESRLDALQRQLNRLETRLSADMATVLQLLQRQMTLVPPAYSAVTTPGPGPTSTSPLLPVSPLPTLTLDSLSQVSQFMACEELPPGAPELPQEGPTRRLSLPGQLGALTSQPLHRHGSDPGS

| Structure (SMILES) | hERG current change (%, negative = inhibition) at 1uM |
| --- | --- |
| Cc1ccc(CNC(=O)CS(=O)(=O)c2cn(CC(=O)N3CCOCC3)c3ccccc23)cc1 | 2.47% |
| COc1cccc(-c2cc(C(=O)NCCCn3ccnc3)c3ccccc3n2)c1 | -43% |
| Cc1ccc(N(C(=O)Cn2nnc(-c3cccs3)n2)C(C(=O)NC2CCCC2)c2ccncc2)cc1 (centres unmarked) | 4.01% |
| COc1ccc(OCC(=O)N/N=C(\C)c2cc3ccccc3o2)cc1 | -17% |
| Cn1c(CNC(=O)c2ccccc2F)nnc1SCC(=O)N1CCN(c2ccccc2)CC1 | 13.6% |
| Cc1cc(NS(=O)(=O)c2ccc(OCCNS(C)(=O)=O)cc2)no1 | 10.7% |
| CC1(C)CC(=O)c2cc(C(=O)N3CCN(CCO)CC3)c(=O)n(-c3ccc(Cl)cc3)c2C1 | 9.89% |
| Cc1c(C(=O)O)sc2nc(/C=C/c3cccc(F)c3)[nH]c(=O)c12 | 12.3% |
| O=C(N/N=C/c1cccnc1)C1CCCN(S(=O)(=O)c2ccccc2)C1 (centres unmarked) | 5.81% |
| Cc1ccc(C)c(N(C(=O)CS(=O)CC(=O)Nc2ccc3c(c2)OCO3)C(C)C(=O)NC2CCCC2)c1 (centres unmarked) | -12.2% |
| O=C(Oc1ccc2c3c(c(=O)oc2c1)CCCC3)c1ccco1 | 11% |
| CC1CCCC(NS(=O)(=O)c2cc3c(cc2Cl)NC(=O)CO3)C1C (centres unmarked) | 2.9% |
| Cc1sc2ncn(CC(=O)NCC(=O)N3CCC4(CC3)OCCO4)c(=O)c2c1C | 7.59% |
| COc1ccc(S(=O)(=O)N2CCOC2CNC(=O)C(=O)NCc2ccc(F)cc2)cc1 (centres unmarked) | -4.78% |
| Cn1cccc1/C=C1\SC(=S)N(NC(=O)c2ccccc2)C1=O | 11.8% |
| COc1cc(/C=C2/CCc3ccccc3C2=O)cc(OC)c1OC | 5.04% |
| Cc1ccnc(NS(=O)(=O)c2ccc(NC(=O)c3cc(=O)c4ccccc4o3)cc2)n1 | 17% |
| C/C(=N\NC(=O)C1CC1)c1ccc(C(C)(C)C)cc1 | 9.99% |
| Cc1cc(C)cc(-n2ncc3c2CCCC3NC(=O)C2CCC2)c1 (centres unmarked) | -42.9% |

| Structure (SMILES) | hERG current change (%, negative = inhibition) at 1uM |
| --- | --- |
| CC1CCN(S(=O)(=O)c2ccc(S(=O)(=O)NCc3cccnc3)cc2)CC1 | 15.1% |
| CC(C)Oc1ccc(C(CC(=O)N2CCOCC2)C(C)C)cc1 (centres unmarked) | 6.27% |
| C[C@H](NC(=O)c1nc[nH]c1C(=O)N1CC[NH2+]CC1)C(=O)OC(C)(C)C.[Cl-] | 10.2% |
| Cc1ccc(NC(=O)CN2CCC(C(=O)c3ccc(F)cc3)CC2)cc1 | -50.1% |
| O=C(NCc1cccnc1)C(=O)NCC(c1ccco1)N1CCN(c2ccc(F)cc2)CC1 (centres unmarked) | 10.5% |
| Cc1ccc2oc(=O)cc(CN3CCC(C)CC3)c2c1 | 16% |
| CCN(CC)C(=O)CCCc1c[nH]c2ccccc12 | 15.7% |
| COC(=O)CSc1nc(N)nc(C)c1Cl | -3.41% |
| Cc1nnc(NC(=O)c2ccco2)s1 | 6.67% |
| O=C(CCCN1C(=O)/C(=C/c2cccs2)SC1=S)Nc1cccc(O)c1 | 14.3% |
| O=C(NCc1ccco1)c1cnn2c(C(F)(F)F)cc(-c3cccs3)nc12 | 9.4% |
| C/C(=N\NC(=O)c1ccccc1)c1c(C)[nH]n(-c2ccccc2)c1=O | 19.3% |
| Nc1nc(-c2ccc(Cl)cc2Cl)cn1N | 0.323% |
| CCc1ccc(NC(=O)c2ccnc(C(C)(C)C)c2)cc1 | -0.23% |
| Fc1ccc(Br)cc1/C=N/N1CCN(c2ccccc2)CC1 | 17.1% |
| Cc1ccc(CC(=O)Nc2cc(C)ccn2)cc1 | 12.9% |
| CO[C@@H]1O[C@@H]2COC(c3ccccc3)O[C@@H]2[C@@H](OC)[C@@H]1O (some centres unmarked) | 19.4% |
| O=C1C=CN(Cc2ccccc2)CC1 | 4.85% |
| O=C(O)C1=NOC(CNC(=O)c2ccccc2Cl)C1 (centres unmarked) | 21.3% |

| Structure (SMILES) | hERG current change (%, negative = inhibition) at 1uM |
| --- | --- |
| O=C(Cn1cnc2c(oc3ccccc32)c1=O)N1CCCc2ccccc21 | 4.77% |
| Cc1cc(=O)oc2cc(OCC(=O)N/N=C/c3ccccc3[N+](=O)[O-])ccc12 | -8.29% |
| Cc1noc(/C=C/c2ccco2)c1S(=O)(=O)N1CCC(C(=O)N2c3ccccc3CC2C)CC1 (centres unmarked) | -0.434% |
| CCOc1ccccc1NC1=NC2CS(=O)(=O)CC2S1 (centres unmarked) | 18.9% |
| COc1ccc2nc(Nc3nc(CSc4nc5ccccc5s4)cc(=O)[nH]3)nc(C)c2c1 | 5.49% |
| O=C(CN1C(=O)COc2ccccc21)N1CCOCC1 | 8.59% |
| CN1/C(=C\C(=O)COC(=O)c2ccccc2O)C(C)(C)c2ccccc21 | 6.85% |
| Cc1ccc(CNC(=O)CC(C)S(=O)(=O)c2ccc3c(c2)NC(=O)CO3)cc1 (centres unmarked) | -11% |
| CS(=O)(=O)N(CC(=O)NCCSCc1cccc(Cl)c1)c1ccccc1F | 2.83% |
| COc1ccc(Cl)cc1-n1c(=S)sc2c(=O)n(-c3ccc(F)cc3)c(SCC(=O)O)nc21 | 1.64% |
| COc1ccc(C2CC(=O)c3cnc(NC(=O)c4cc(OC)cc(OC)c4)nc3C2)cc1 (centres unmarked) | 12.7% |
| COc1ccc(OCC(=O)N(C)Cc2ccccc2)cc1 | 7.11% |
| O=C(Nc1ccnn1C1CCN(C(=O)c2cnsn2)CC1)c1cccc(F)c1 | 8.19% |
| COC(=O)c1ccc2c(=O)[nH]c(CN3c4ccccc4CC3C)nc2c1 (centres unmarked) | 3.34% |
| Cc1cc(C)nc(SCC(=O)c2ccc(Cl)cc2)n1 | 14.9% |
| O=C(COc1ccccc1Cl)NCC(c1cccs1)N1CCOCC1 (centres unmarked) | 2.47% |
| CC(=O)c1ccccc1OCC(O)CN1CCN(C(c2ccccc2)c2ccccc2)CC1 (centres unmarked) | -15.6% |
| O=C(COC(=O)c1ccco1)c1ccc2ccccc2c1 | 16.3% |
